Among all 310,000 compounds or so, about 2,200 (0.71%) showed an effect of 50% or more. The effect is printed as a negative number. This is one part of the list.
These compounds were tested against human ether-à-go-go-related gene (hERG) potassium channel (human, UniProt Q12809) (assay: primary screen, population patch clamp on CHO cells stably expressing hERG).
human ether-à-go-go-related gene (hERG) potassium channel, sequence (Q12809 whole entry, looked up): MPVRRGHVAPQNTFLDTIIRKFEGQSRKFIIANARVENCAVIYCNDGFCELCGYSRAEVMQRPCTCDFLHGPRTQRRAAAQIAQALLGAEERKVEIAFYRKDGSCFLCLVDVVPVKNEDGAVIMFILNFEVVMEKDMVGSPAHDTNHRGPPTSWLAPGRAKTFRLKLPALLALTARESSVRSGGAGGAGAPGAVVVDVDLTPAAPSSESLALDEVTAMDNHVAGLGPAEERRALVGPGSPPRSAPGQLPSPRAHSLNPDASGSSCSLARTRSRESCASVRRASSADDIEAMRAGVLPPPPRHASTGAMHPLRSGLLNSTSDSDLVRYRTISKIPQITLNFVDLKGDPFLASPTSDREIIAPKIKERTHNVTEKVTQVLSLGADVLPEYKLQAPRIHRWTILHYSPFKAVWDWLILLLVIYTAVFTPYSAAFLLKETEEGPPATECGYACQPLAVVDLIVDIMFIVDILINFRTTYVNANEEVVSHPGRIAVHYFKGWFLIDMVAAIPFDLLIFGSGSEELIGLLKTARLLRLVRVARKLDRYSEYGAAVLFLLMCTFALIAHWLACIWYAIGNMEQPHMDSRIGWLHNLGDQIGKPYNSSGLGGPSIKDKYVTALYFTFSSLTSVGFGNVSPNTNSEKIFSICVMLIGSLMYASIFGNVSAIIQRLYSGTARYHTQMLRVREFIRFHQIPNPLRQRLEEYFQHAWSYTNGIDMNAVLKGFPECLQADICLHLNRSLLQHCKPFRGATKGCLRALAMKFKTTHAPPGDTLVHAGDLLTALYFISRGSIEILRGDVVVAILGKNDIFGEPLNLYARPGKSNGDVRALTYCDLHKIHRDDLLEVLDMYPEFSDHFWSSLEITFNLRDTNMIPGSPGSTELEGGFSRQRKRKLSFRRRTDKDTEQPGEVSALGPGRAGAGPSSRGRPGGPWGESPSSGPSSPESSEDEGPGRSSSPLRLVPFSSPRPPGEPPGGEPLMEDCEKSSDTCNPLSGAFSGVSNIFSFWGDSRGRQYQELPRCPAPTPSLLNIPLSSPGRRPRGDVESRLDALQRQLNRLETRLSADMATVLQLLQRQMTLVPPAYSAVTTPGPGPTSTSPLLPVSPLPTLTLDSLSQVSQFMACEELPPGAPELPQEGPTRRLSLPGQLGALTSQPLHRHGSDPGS

Row | Structure (SMILES) | hERG current change (%, negative = inhibition) at 1uM [%]
1 | COc1cc2oc3cc(C)oc(=O)c3c2cc1OC | 2.73
2 | COc1ccc(OC)c(NC(=O)C2CCCN(S(=O)(=O)c3ccc(-n4cnnn4)cc3)C2)c1 (stereo not drawn) | 5.12
3 | COc1ccc(CN(C)S(=O)(=O)c2nnc(NC(=O)c3cccc(C)c3)s2)cc1OC | 14.1
4 | O=C(CNC(=O)c1ccccc1)OCC(=O)N1c2ccccc2Sc2ccccc21 | 10.3
5 | O=C(CN1CCOCC1)Nc1ncccn1 | 12.3
6 | COc1ccc(NC(=O)CN2CCC(Cc3ccccc3)CC2)cc1S(=O)(=O)N1CCOCC1 | 3.78
7 | Cn1c(N)c(C(=O)Nc2ccc(-c3ccccc3)cc2)sc1=S | 12.2
8 | CC(C)(C)c1ccc(C(=O)N2CCC(NC(=O)c3ccccc3)CC2)cc1 | 17
9 | Cc1ccc(S(=O)(=O)NC(=O)NCC2CCN(S(=O)(=O)c3ccccc3)CC2)cc1 | 12.7
10 | C=CCn1c(SCC#N)nc2ccccc2c1=O | 13.1
11 | CCOC(=O)c1cnn(CCOC(=O)C2CC2)c1NC(=O)C1CC1 | 4.67
12 | COc1ccc2c(=O)c(-c3ccccc3)coc2c1 | 13.9
13 | COc1cccc(C(=O)Nc2c(C)n[nH]c2C)c1 | 11.9
14 | Cc1cccnc1NC(=O)COc1ccc2oc3c(c2c1)CCCC3 | 16.8
15 | CSc1nc(C)c(Cc2ccccc2)c(=O)[nH]1 | 13.6
16 | CCN(CC)C(=O)CC(c1ccc2c(c1)OCO2)c1c(O)cc(OC)cc1OC (stereo not drawn) | 5.47
17 | Cc1cc(C)c2c(=O)n(CC(=O)NCCCN3CCN(c4ccccc4F)CC3)sc2n1 | -15.3
18 | O=C(NCCCN1CCN(C2CCCCC2)CC1)Nc1ccccc1C(F)(F)F | -18.6
19 | O=C(Nc1cccc(-n2cnnn2)c1)c1cccs1 | 18.5
20 | COc1ccc(N2CCN(C(=O)c3sc4ncn(CC(=O)N5CCCCC5C)c(=O)c4c3C)CC2)cc1 (stereo not drawn) | 1.19
21 | CCCNS(=O)(=O)c1ccc(Oc2ncc(C(F)(F)F)cc2Cl)cc1 | 10.6
22 | C=CCn1c(COc2ccccc2OC)nc2ccccc21 | 4.94
23 | O=C(NCc1cccs1)C1CCN(c2nc3ccccc3o2)CC1 | -7.43

Row | Structure (SMILES) | hERG current change (%, negative = inhibition) at 1uM [%]
24 | COCCCNCCOCCOc1ccc(C)cc1Br | -3.87
25 | Cc1ccc(C)c(C(C)NC(=O)c2ccccc2Br)c1 (stereo not drawn) | 6.64
26 | Cc1ccc(NC(=O)CSc2ccc(-c3ccccn3)nn2)cc1F | 10.4
27 | O=C(COC(=O)c1cc(-c2cccs2)nn1-c1ccccc1)Nc1cccc([N+](=O)[O-])c1 | -0.452
28 | Cc1c(C(=O)NCc2ccc3c(c2)OCO3)oc2ccc(S(=O)(=O)N3CCCCCC3)cc12 | 9.62
29 | CCOc1ccccc1/C=N/NC(=O)CNC(=O)c1ccc(S(=O)(=O)N2CCOCC2)cc1 | 9.95
30 | O=C(NCc1ccc2c(c1)OCO2)c1cc2c(s1)CSC2 | 13.6
31 | CCOC(=O)CNC(=O)C(CC(C)C)NC(=O)C1CCCCC1 (stereo not drawn) | 8.23
32 | O=C(c1ccccc1)c1ccccc1C(=O)N1CCCC1 | -2.15
33 | COc1ccc(N2CCN(c3nc4c(c(=O)n(C)c(=O)n4C)n3Cc3ccccc3)CC2)cc1 | 3.75
34 | COc1ccc(C)cc1N(C(=O)COc1cccc(F)c1)c1nc2ccccc2s1 | -13.3
35 | O=C(c1ccco1)N1CCN(CC(O)Cn2c3ccccc3c3ccccc32)CC1 (stereo not drawn) | -4.83
36 | Cc1c(C(=O)N2CCC2)oc2ccc(Br)cc12 | -2.36
37 | CCCc1nnc(SCc2ccc(C(=O)OC)o2)n1N | 10.2
38 | O=C(Cc1cccc(C(F)(F)F)c1)N1CCN(CC(=O)N2CCCC2)CC1 | 12
39 | O=C(O)CCC1OC(=O)C(O)=C1c1ccccc1 (stereo not drawn) | 13.2
40 | Cc1cccc(NC(=O)c2ccc(COc3ccccc3[N+](=O)[O-])o2)n1 | 3.01
41 | Cc1cc(=O)nc2c3ccccc3n(CC(=O)NCCCN3CCCCC3C)n12 (stereo not drawn) | 9.8
42 | CC(CCc1ccccc1)NC(=O)C1CCN(S(=O)(=O)N2CCCCC2)CC1 (stereo not drawn) | -3.31
43 | COC(=O)c1[nH]c2ccc(C)cc2c1NC(=O)CN1CCN(c2ccccc2)CC1 | 8.44
44 | O=C(Cc1nnc(NC(=O)c2cccc([N+](=O)[O-])c2)s1)NCc1ccccc1 | 15.6
45 | COc1ccc(-n2cc(CNCC3CC(=O)N(C4CC4)C3)c(-c3ccccc3Cl)n2)cc1 (stereo not drawn) | 1.9
46 | COc1ccccc1N1CCN(C(=O)c2ccc(N3CCCC3=O)cc2)CC1 | 6.64

Row | Structure (SMILES) | hERG current change (%, negative = inhibition) at 1uM [%]
47 | COC(=O)c1ccc(-c2ccc(/C=N/NC(=O)CC3(C)OCCCO3)o2)cc1 | 11.3
48 | COc1ccc(C(C)NC(=S)NCc2ccc(F)cc2)cc1OC (stereo not drawn) | 3.47
49 | COc1ccc(N2C(=O)C3CCCN3C2c2ccccc2Cl)cc1 (stereo not drawn) | 8.68
50 | CC(C)C(NS(=O)(=O)c1ccc2c(c1)C(C)(C)C(=O)N2C)C(=O)NCc1ccccc1Cl (stereo not drawn) | 3.16
51 | O=C1CC(c2ccccc2)Sc2nc(-c3ccccc3)c(-c3ccccc3)n21 (stereo not drawn) | 7.14
52 | COc1ccc(OC)c(C(=O)Cn2nnc(-c3ccc(N4CCOCC4)cc3)n2)c1 | 13.1
53 | CC(C)CCn1c(CN(C)Cc2ccccc2)nc2c1c(=O)n(C)c(=O)n2C | -21.1
54 | C[n+]1cc(-c2ccccc2)oc1-c1ccccc1 | 18.5
55 | CCOC(=O)C1CCCN(C(=O)Cn2nc(CC)n3c(cc4sccc43)c2=O)C1 (stereo not drawn) | 2.36
56 | CC(=O)/C=C/c1ccccc1Oc1c(F)c(F)nc(F)c1F | 9.93
57 | O=C(N/N=C/c1ccc2c(c1)OCO2)C(=O)N1CCCC1 | 9.83
58 | CCn1c(SCC(=O)c2ccc3c(c2)OCCO3)nnc1-c1ccco1 | -3.18
59 | COc1ccc(-n2c(C)nn(C)c2=O)c(OC)c1 | 3.28
60 | O=C(CC12CC3CC(CC(Br)(C3)C1)C2)OCCN1CCCCC1 | 8.55
61 | Clc1ccc(Nc2c3c(nc4ncnn24)CCC3)cc1 | 24.3
62 | CCOc1ccc(-c2nc(C#N)c(N3CCCCCC3)o2)cc1 | 7.29
63 | Cc1nc2cc(C(=O)O)ccc2n1C1CCCCC1 | 8.97
64 | C=CCn1c(=O)c(C(=O)NCc2ccccc2Cl)c(O)c2ccccc21 | 12.6
65 | C/C(CC(=O)NCc1ccccc1Cl)=N/NC(=O)c1ccccn1 | 11.4
66 | COc1ccc(S(=O)(=O)N(CCC(=O)O)Cc2ccccc2)cc1 | 10.4
67 | O=C(CSc1ncnc2ccccc12)NCc1ccco1 | 10.9
68 | COc1ccc(C(=O)NNC(=S)NC(=O)c2ccco2)cc1 | 9.54
69 | CCOc1ccc(Cl)cc1S(=O)(=O)NC1CCCC1 | 17.2

Row | Structure (SMILES) | hERG current change (%, negative = inhibition) at 1uM [%]
70 | COc1ccc(NC(=S)Nc2ccccc2SC)c(OC)c1 | 10.2
71 | COc1cc(OC)c(C#N)c(S(=O)(=O)Cc2ccccc2)c1 | -9
72 | Nc1cc(OCC(F)(F)F)cc([N+](=O)[O-])c1 | 10
73 | CCS(=O)(=O)c1ccc(-c2cccc(NC(=O)COc3ccccc3)c2)nn1 | 9.2
74 | Cn1c(C(=O)NCc2cccs2)cc2oc3ccccc3c21 | 5.03
75 | CCc1noc(C)c1C(=O)N1CCN(S(=O)(=O)c2ccc(C(C)C)cc2)CC1 | -5.49
76 | CCOc1cc(/C=N/NC(=O)c2cccnc2)ccc1OCC(=O)N(C)C | 15.3
77 | Cc1ccc(NC(=O)Nc2cc(C(F)(F)F)c[nH]c2=O)cc1 | 15
78 | CN(C)S(=O)(=O)c1cccc(NC(=O)/C=C/c2ccccc2[N+](=O)[O-])c1 | 9.75
79 | O=C1C2C3C=CC(C3)C2C(=O)N1c1n[nH]c(-c2ccccc2)n1 (stereo not drawn) | -0.114
80 | COc1ccc(S(=O)(=O)NCC2CCCN(C(=O)c3cccs3)C2)cc1 (stereo not drawn) | 7
81 | CCOC(=O)N1CCN(C(=O)c2oc(=O)c3ccccc3c2-c2ccc(C)cc2)CC1 | -3.27
82 | Cl.O=C(CN1CCN(c2ncccn2)CC1)N(Cc1ccccc1)c1ccc(F)cc1 | 1.82
83 | Cc1cccc(/C=N/NC(=O)c2cc(-c3cccnc3)nc3c2c(C)nn3-c2ccccc2)c1 | -3.85
84 | COc1ccccc1CNC(=O)c1ccncc1 | 16.6
85 | CCN(CC)C(=O)c1ccc(N)cc1 | 9.68
86 | COc1cc(CO)cc(-c2cc(CO)cc(OC)c2OC)c1OC | 10.5
87 | Cc1cccc(C(=O)OCC(=O)N2CC(C)OC(C)C2)c1C (stereo not drawn) | 19.1
88 | CCOc1cc(/C=C2\SC(=N)N(c3nonc3N)C2=O)ccc1OCC(N)=O | 8.13
89 | O=C(Nc1ccc(-c2nnc(-c3ccco3)o2)cc1)C(c1ccccc1)c1ccccc1 | 12.8
90 | CCOc1ccc(Nc2oc(-c3ccco3)nc2C#N)cc1 | 8.43

— article PMC4336329 (PLoS ONE, 2015)
